The campaign covered roughly 39,000 compounds. About 220 (0.56%) showed activity. This is one part of the list.
tested on: Escherichia coli K-12 BW25113; experiment: relative growth (OD600 normalised to plate interquartile mean) (fraction); higher = less growth inhibition, active = 0.2 or less; settings: 50 µM; LB; incubation time: overnight (16-24 h)
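Further: static incubation at 37 °C against the wild-type strain, values averaged over two biological replicates.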

| Structure (SMILES) | relative growth |
| --- | --- |
| C[C@H](CO)N1C[C@H](C)[C@H](CN(C)S(=O)(=O)c2cn(C)cn2)Oc2ccc(NC(=O)CCCN(C)C)cc2C1=O | inactive: 0.991 |
| Cn1cnc(S(=O)(=O)N[C@H]2C=C[C@@H](CC(=O)Nc3ccccc3)O[C@@H]2CO)c1 | inactive: 0.994 |
| C[C@@H]1CN([C@@H](C)CO)C(=O)c2cccc(NS(=O)(=O)c3cccs3)c2O[C@@H]1CN(C)S(=O)(=O)c1ccccc1 | inactive: 1.02 |
| C[C@@H]1CN([C@@H](C)CO)C(=O)c2cc(NC(=O)c3ccccc3)ccc2O[C@@H](C)CCCCO[C@@H]1CN(C)C(=O)c1ccccc1 | inactive: 1.01 |
| CC(C)(C)OC(=O)CC[C@]1(C(=O)NCc2ccccc2)N=C(c2ccc(OCCCO)cc2)O[C@H]1c1ccccc1 | inactive: 0.993 |
| C[C@H](CO)N1C[C@H](C)[C@H](CN(C)Cc2ccc(Oc3ccccc3)cc2)Oc2ccc(NC(=O)c3ccncc3)cc2C1=O | inactive: 1.01 |
| CC(C)NC(=O)Nc1ccc2c(c1)CC(=O)N([C@H](C)CO)C[C@H](C)[C@H](CN(C)Cc1ccc(C(=O)O)cc1)O2 | inactive: 1.02 |
| C[C@@H]1CCCCO[C@H](CN(C)C(=O)Cc2ccccc2)[C@@H](C)CN([C@H](C)CO)C(=O)c2cc(NC(=O)Nc3cccc4ccccc34)ccc2O1 | inactive: 1.05 |
| C[C@H](CO)N1C[C@H](C)[C@H](CN(C)C(=O)Cc2ccccc2)OCCCC[C@H](C)Oc2ccc(NC(=O)c3ccccc3)cc2C1=O | inactive: 0.987 |
| Cc1ccc(S(=O)(=O)Nc2cccc3c2O[C@H](CN(C)Cc2ccc(-c4ccccc4)cc2)[C@@H](C)CN([C@@H](C)CO)C3=O)cc1 | inactive: 1.03 |
| O=C(Nc1ccc(C(=O)Nc2ccc(C(=O)Nc3ccc(S(=O)(=O)O)c4cc(S(=O)(=O)O)cc(S(=O)(=O)O)c34)cc2)cc1)Nc1ccc(C(=O)Nc2ccc(C(=O)Nc3ccc(S(=O)(=O)O)c4cc(S(=O)(=O)O)cc(S(=O)(=O)O)c34)cc2)cc1 | inactive: 0.904 |
| O=C(NCC[C@H]1CC[C@H](NS(=O)(=O)c2cccc(F)c2)[C@@H](CO)O1)C1CC1 | inactive: 0.965 |
| O=C(C[C@H]1CC[C@@H](NC(=O)CN2CCOCC2)[C@@H](CO)O1)NCCc1ccncc1 | inactive: 1 |
| C[C@@H]1CN([C@@H](C)CO)C(=O)c2cc(C#CC3(O)CCCC3)cnc2O[C@@H]1CN(C)S(=O)(=O)c1ccc(F)cc1 | inactive: 0.999 |
| COc1ccc(S(=O)(=O)Nc2ccc3c(c2)C(=O)N([C@H](C)CO)C[C@H](C)[C@@H](CN(C)C(=O)NC2CCCCC2)OCCCC[C@H](C)O3)cc1 | inactive: 1.02 |
| C[C@@H]1CN([C@@H](C)CO)C(=O)c2cc(NS(=O)(=O)c3cn(C)cn3)ccc2O[C@@H]1CN(C)CC1CCCCC1 | inactive: 0.986 |
| COCC(=O)N1CC[C@]2(CC(C(=O)NCc3cnc(C)cn3)=NO2)C1 | inactive: 1 |
| COc1ccccc1-c1ccc2c(c1)O[C@H](CN(C)C(=O)c1ccncc1)[C@@H](C)CN([C@@H](C)CO)S2(=O)=O | inactive: 1.02 |
| CCOC(=O)c1cc2c(c(-c3cccc(Br)c3)n1)[C@@H](CCOC)N([S@](=O)C(C)(C)C)C2 | inactive: 0.998 |

| Structure (SMILES) | relative growth |
| --- | --- |
| C[C@@H]1CN([C@H](C)CO)C(=O)Cc2cc(NC(=O)Nc3ccc(C(F)(F)F)cc3)ccc2O[C@@H]1CN(C)CC1CCCCC1 | inactive: 1.01 |
| COc1ccc(CN(C)C[C@H]2OCCCC[C@@H](C)Oc3ccc(NC(=O)Nc4ccc5c(c4)OCO5)cc3C(=O)N([C@H](C)CO)C[C@H]2C)cc1 | inactive: 0.999 |
| C[C@H](CO)N1C[C@H](C)[C@@H](CN(C)S(=O)(=O)c2ccccc2)Oc2c(NC(=O)Nc3cccc4ccccc34)cccc2C1=O | inactive: 0.934 |
| C[C@H]1CN([C@@H](C)CO)C(=O)Cc2cc(NC(=O)CCCN(C)C)ccc2O[C@@H]1CN(C)S(=O)(=O)c1cn(C)cn1 | inactive: 0.983 |
| Cc1noc(C)c1S(=O)(=O)Nc1ccc2c(c1)C(=O)N([C@@H](C)CO)C[C@@H](C)[C@H](CN(C)S(=O)(=O)c1cn(C)cn1)OCCCC[C@@H](C)O2 | inactive: 0.981 |
| C=CCNS(=O)(=O)c1cccc2nonc12 | inactive: 0.97 |
| CCCCCC(C)N.O=S(=O)(O)O (configuration not stated) | inactive: 1.02 |
| C[C@H]1O[C@@H](O[C@H]2[C@@H](O)C[C@H](O[C@H]3[C@@H](O)C[C@H](O[C@H]4CC[C@@]5(C)[C@H](CC[C@@H]6[C@@H]5C[C@@H](O)[C@@]5(C)[C@@H](C7=CC(=O)OC7)CC[C@]65O)C4)O[C@@H]3C)O[C@@H]2C)C[C@H](O)[C@@H]1O | inactive: 1.01 |
| C[C@@H]1CN([C@@H](C)CO)C(=O)c2cc(NC(=O)Nc3ccc(F)cc3)ccc2O[C@H]1CN(C)Cc1ccc(-c2ccccc2)cc1 | inactive: 0.986 |
| C[C@@H]1CCCCO[C@H](CN(C)C(=O)Nc2ccc3c(c2)OCO3)[C@H](C)CN([C@H](C)CO)C(=O)c2cc(NC(=O)C3CCCCC3)ccc2O1 | inactive: 1 |
| C[C@H](CO)N1C[C@H](C)[C@@H](CN(C)C(=O)NC2CCCCC2)Oc2ccc(NC(=O)CCN3CCOCC3)cc2C1=O | inactive: 1.02 |
| Cc1cc(=O)c(C(=O)N[C@@H](C(=O)N[C@@H]2C(=O)N3C(C(=O)O)=C(CSc4nnnn4C)CS[C@H]23)c2ccc(O)cc2)c[nH]1 | active: 0.0389 |
| CN1CCN(C(=O)C[C@@H]2CC[C@H]3[C@@H](COC[C@H](O)CN3C(=O)Nc3ccc4c(c3)OCO4)O2)CC1 | inactive: 0.994 |
| C[C@@H]1CN([C@H](C)CO)C(=O)c2cc(/C=C/c3ccccc3)cnc2O[C@H]1CN(C)C(=O)c1cnccn1 | inactive: 1 |
| C[C@H](CO)N1C[C@H](C)[C@@H](CN(C)C(=O)NC2CCCCC2)OCCCC[C@H](C)Oc2ccc(NC(=O)CCC(F)(F)F)cc2C1=O | inactive: 0.978 |
| C[C@H](O)C#Cc1ccc2c(c1)O[C@H](CN(C)C(=O)CN(C)C)[C@@H](C)CN([C@H](C)CO)S2(=O)=O | inactive: 0.933 |
| Cc1cc(C(F)(F)F)cc(Cl)n1 | inactive: 0.988 |
| C[C@@H]1CN([C@H](C)CO)C(=O)c2cc(NS(=O)(=O)c3ccc(Cl)cc3)ccc2O[C@H]1CN(C)Cc1ccc(C(F)(F)F)cc1 | inactive: 1.05 |
| CCc1nc2ccc(C(=O)N3CCN(S(=O)(=O)CC)CC3)cn2c1N(CCC(C)C)CCN(C)C | inactive: 0.994 |

| Structure (SMILES) | relative growth |
| --- | --- |
| CC(=O)OC1CC2CCC1(C)C2(C)C (configuration not stated) | inactive: 0.978 |
| C[C@H](O)C#Cc1ccc2c(c1)O[C@@H](CN(C)C(=O)c1ccncc1)[C@@H](C)CN([C@@H](C)CO)S2(=O)=O | inactive: 0.968 |
| C[C@H](CO)N1C[C@H](C)[C@@H](CN(C)Cc2ccc(-c3ccccc3)cc2)Oc2ccc(NS(=O)(=O)c3ccc(F)cc3)cc2C1=O | inactive: 1.04 |
| COc1ccc(S(=O)(=O)Nc2ccc3c(c2)CC(=O)N([C@H](C)CO)C[C@H](C)[C@@H](CN(C)Cc2ccc(C(=O)O)cc2)O3)cc1 | inactive: 0.997 |
| CCCN1C[C@H](C)[C@H](OC)CN(C)C(=O)c2cc(NS(=O)(=O)c3cn(C)cn3)ccc2OC[C@@H]1C | inactive: 0.972 |
| C[C@@H]1CN([C@H](C)CO)C(=O)c2cc(C3=CCCC3)cnc2O[C@@H]1CN(C)C(=O)c1ccc2c(c1)OCO2 | inactive: 1 |
| C[C@H]1CN([C@@H](C)CO)S(=O)(=O)c2ccc(C#Cc3ccccc3)cc2O[C@H]1CN(C)C(=O)c1ccccn1 | inactive: 1.03 |
| C[C@@H]1CN([C@@H](C)CO)C(=O)Cc2cc(NC(=O)Nc3ccc4c(c3)OCO4)ccc2O[C@H]1CN(C)Cc1ccc(Cl)c(Cl)c1 | inactive: 1.03 |
| Cc1ccc(S(=O)(=O)Nc2ccc3c(c2)C(=O)N([C@@H](C)CO)C[C@H](C)[C@@H](CN(C)Cc2ccc(Oc4ccccc4)cc2)O3)cc1 | inactive: 0.947 |
| Cn1cnc(CCNC(=O)C[C@H]2CC[C@@H]3[C@H](COC[C@H](O)CN3C(=O)C3CC3)O2)c1 | inactive: 0.959 |
| CO[C@H]1CN(C)C(=O)c2cc(NS(C)(=O)=O)ccc2OC[C@H](C)N(C(=O)C2CCOCC2)C[C@H]1C | inactive: 0.982 |
| C[C@@H]1CCCCO[C@H](CN(C)C(=O)CCC(F)(F)F)[C@H](C)CN([C@@H](C)CO)C(=O)c2cc(NC(=O)Nc3ccc4c(c3)OCO4)ccc2O1 | inactive: 0.984 |
| C[C@@H]1CCCCO[C@@H](CN(C)Cc2ccc(Cl)c(Cl)c2)[C@H](C)CN([C@H](C)CO)C(=O)c2cc(NC(=O)c3ccccc3)ccc2O1 | inactive: 1 |
| Cc1noc(C)c1NC(=O)Nc1ccc2c(c1)CC(=O)N([C@H](C)CO)C[C@H](C)[C@H](CN(C)S(=O)(=O)c1ccccc1)O2 | inactive: 1.05 |
| O=C1O[C@@H](c2ccccc2)[C@@H](c2ccccc2)N2[C@@H](c3ccc(O)cc3)[C@]3(C(=O)Nc4ccc(C#CCCO)cc43)[C@@H](C(=O)NC[C@H](O)c3ccccc3)[C@H]12 | inactive: 1.02 |
| CC(C)(C)C#CC(=O)C#CC(C)(C)C | inactive: 1.01 |
| Cc1ccc(S(=O)(=O)N(C)C[C@@H]2OCCCC[C@@H](C)Oc3ccc(NC(=O)Nc4ccc(F)cc4)cc3C(=O)N([C@@H](C)CO)C[C@@H]2C)cc1 | inactive: 1.01 |
| C[C@@H]1CN([C@@H](C)CO)C(=O)c2cc(C#CCc3ccccc3)cnc2O[C@H]1CN(C)C(=O)Cc1cccnc1 | inactive: 0.981 |
| C[C@H](CO)N1C[C@H](C)[C@@H](CN(C)Cc2ccccc2)Oc2ccc(NC(=O)CCCN(C)C)cc2C1=O | inactive: 1.02 |
